Measured values from PubChem BioAssay AID540317 (National Center for Advancing Translational Sciences (NCATS), 2011).
Several values for one entry are separate records, joined by “and”; a condition that tells them apart may be missing. Equal values may be shown once. In all, about 390,000 compounds went through this assay and about 2,200 (0.56%) were called active. This list was built around the results that the source calls inconclusive (neither active nor inactive); the mix of calls is not that of the screen. Calls come from the whole dose curve; as a rule, active = well fitted inhibition curve with a large enough effect; inconclusive = small, poorly fitted or top-dose-only effect; inactive = no such curve, though single readings can be large or run the other way. A potency beside an inconclusive call is a rough fit, not a confirmed value.

Molecular target: Chromobox protein homolog 1 (Homo sapiens) (UniProt P83916)
UniProt P83916, sequence (P83916 whole entry, looked up): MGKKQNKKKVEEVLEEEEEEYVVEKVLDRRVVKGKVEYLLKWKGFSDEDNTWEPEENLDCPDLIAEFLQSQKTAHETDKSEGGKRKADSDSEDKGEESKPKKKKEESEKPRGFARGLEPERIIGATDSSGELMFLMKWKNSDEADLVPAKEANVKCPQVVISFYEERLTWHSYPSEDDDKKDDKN
Test: HTS for Inhibitors of HP1-beta Chromodomain Interactions with Methylated Histone Tails; note: nearly all actives have a fitted effect of over 70% in size
Settings: AlphaScreen HP1-beta / biotin-H3K9me3 peptide binding; series mostly up to 114 µM; activity change, negative = inhibition: at the top concentration
Summary of the method: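 AlphaScreen: HP1-beta (50 nM) preformed 30 min with biotin-H3(1-18)K9me3 peptide (50 nM) in PBS pH 7.4, 0.01% Tween-20. Compound added for 30 min at RT, then streptavidin donor/nickel chelate acceptor beads (10 ug/mL) for 30 min.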
Potency is the fitted concentration of half-maximal effect; tags give direction and shape of the fitted curve.

SMILES	activity change, negative = inhibition	Potency
O=C(O)CC(c1cccc(O)c1)N1Cc2ccccc2C1=O (stereo unspecified)	inactive: 35.1%	–
O=C(COc1ccc(S(=O)(=O)N2CCCC2)cc1)NCC1CCCO1 (stereo unspecified)	–	inconclusive: 89.1 µM [inhibitor, partial curve, poor fit]
O=[N+]([O-])c1cc(Br)c(O)c(C=Nc2ccc(N3CCOCC3)cc2)c1	inactive: 6.82%	–
C(=C\c1ccco1)/c1ccc2ccccc2n1	–	inconclusive: 50.1 µM [inhibitor, partial curve]
O=C(NC(=S)Nc1ccc2c(c1)OCCO2)c1cccc(Br)c1	–	inconclusive: 56.2 µM [inhibitor, partial curve, poor fit]
O=S(=O)(c1cccc(C(F)(F)F)c1)N(CCCN1CCOCC1)Cc1cccs1	–	inconclusive: 22.4 µM [inhibitor, single point] and inconclusive: 22.4 µM [inhibitor, partial curve, poor fit]
Cc1ccc(S(=O)(=O)N2CCOCC2)cc1C(=O)OCc1nnc(-c2ccccc2)o1	inactive: 16.1%	–
O=[N+]([O-])c1cccc(-c2ccc(C(=S)N3CCN(c4ccccc4)CC3)o2)c1	–	inconclusive: 3.55 µM [inhibitor, full curve]
C=CCN(CC=C)CCOc1cc(C)ccc1[N+](=O)[O-]	–	active: 28.2 µM
COc1cc(/C=C2\C(=O)ON=C2c2ccccc2)cc(Cl)c1O	–	active: 44.7 µM
CCc1nccn1S(=O)(=O)c1ccc(OC)c(OC)c1	inactive: 21%	–
Cc1ccc(S(=O)(=O)N2CC=C(c3c(C)n(C)c4ccccc34)CC2)cc1	–	inconclusive: 22.4 µM [inhibitor, partial curve, poor fit]
CCOC(=O)N1CCN(Cc2ccc3ccccc3c2)CC1	–	inconclusive: 22.4 µM [inhibitor, full curve]
CSc1nsc(SCC(=O)Nc2nncs2)n1	inactive: -34.5%	–
Cc1cc(NC(=O)COC(=O)c2cc3c(s2)CCC(C)C3)no1 (stereo unspecified)	inactive: 27.1%	–
CC1CCC/C(=N/Nc2ccc([N+](=O)[O-])cc2[N+](=O)[O-])C1 (stereo unspecified)	–	inconclusive: 15.8 µM [inhibitor, full curve, poor fit]
CCC(=O)N1CCc2cc(CNC(=O)Nc3ccc(OC)cc3OC)ccc21	inactive: 1.39% [at 57 µM]	–
O=C(Nc1ccc(F)cc1)c1nc(S(=O)(=O)Cc2ccccc2)ncc1Cl	inactive: 22.4%	–
O=C(CCn1nc(-c2ccc(Cl)cc2)ccc1=O)N1CCN(c2ccccc2)CC1	inactive: 13.3%	–
CCn1c(SCC(=O)N2CCOCC2)nc2sc3c(c2c1=O)CCCC3	inactive: 28.3%	–
O=C1C(Cl)=C(NC(=O)c2ccccc2)C(=O)C(Cl)=C1NC(=O)c1ccccc1	–	active: 3.55 µM
